Here are results for 4 substances from article PMC10831045.

Protein sequences, listed by entry. Tags and fused reporters are not part of them. Lines headed by an entry give the natural chain unless they say otherwise; changes in a name come on top.
UniProt P55087: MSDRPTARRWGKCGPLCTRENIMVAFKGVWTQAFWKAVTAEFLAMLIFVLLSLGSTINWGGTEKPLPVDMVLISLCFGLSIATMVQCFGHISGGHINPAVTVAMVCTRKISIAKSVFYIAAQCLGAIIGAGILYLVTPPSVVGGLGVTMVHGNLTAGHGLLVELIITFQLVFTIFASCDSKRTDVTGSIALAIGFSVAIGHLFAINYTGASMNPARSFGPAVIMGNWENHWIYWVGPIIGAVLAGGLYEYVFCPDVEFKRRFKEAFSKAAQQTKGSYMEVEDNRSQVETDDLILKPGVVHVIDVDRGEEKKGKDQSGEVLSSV
UniProt Q5S007: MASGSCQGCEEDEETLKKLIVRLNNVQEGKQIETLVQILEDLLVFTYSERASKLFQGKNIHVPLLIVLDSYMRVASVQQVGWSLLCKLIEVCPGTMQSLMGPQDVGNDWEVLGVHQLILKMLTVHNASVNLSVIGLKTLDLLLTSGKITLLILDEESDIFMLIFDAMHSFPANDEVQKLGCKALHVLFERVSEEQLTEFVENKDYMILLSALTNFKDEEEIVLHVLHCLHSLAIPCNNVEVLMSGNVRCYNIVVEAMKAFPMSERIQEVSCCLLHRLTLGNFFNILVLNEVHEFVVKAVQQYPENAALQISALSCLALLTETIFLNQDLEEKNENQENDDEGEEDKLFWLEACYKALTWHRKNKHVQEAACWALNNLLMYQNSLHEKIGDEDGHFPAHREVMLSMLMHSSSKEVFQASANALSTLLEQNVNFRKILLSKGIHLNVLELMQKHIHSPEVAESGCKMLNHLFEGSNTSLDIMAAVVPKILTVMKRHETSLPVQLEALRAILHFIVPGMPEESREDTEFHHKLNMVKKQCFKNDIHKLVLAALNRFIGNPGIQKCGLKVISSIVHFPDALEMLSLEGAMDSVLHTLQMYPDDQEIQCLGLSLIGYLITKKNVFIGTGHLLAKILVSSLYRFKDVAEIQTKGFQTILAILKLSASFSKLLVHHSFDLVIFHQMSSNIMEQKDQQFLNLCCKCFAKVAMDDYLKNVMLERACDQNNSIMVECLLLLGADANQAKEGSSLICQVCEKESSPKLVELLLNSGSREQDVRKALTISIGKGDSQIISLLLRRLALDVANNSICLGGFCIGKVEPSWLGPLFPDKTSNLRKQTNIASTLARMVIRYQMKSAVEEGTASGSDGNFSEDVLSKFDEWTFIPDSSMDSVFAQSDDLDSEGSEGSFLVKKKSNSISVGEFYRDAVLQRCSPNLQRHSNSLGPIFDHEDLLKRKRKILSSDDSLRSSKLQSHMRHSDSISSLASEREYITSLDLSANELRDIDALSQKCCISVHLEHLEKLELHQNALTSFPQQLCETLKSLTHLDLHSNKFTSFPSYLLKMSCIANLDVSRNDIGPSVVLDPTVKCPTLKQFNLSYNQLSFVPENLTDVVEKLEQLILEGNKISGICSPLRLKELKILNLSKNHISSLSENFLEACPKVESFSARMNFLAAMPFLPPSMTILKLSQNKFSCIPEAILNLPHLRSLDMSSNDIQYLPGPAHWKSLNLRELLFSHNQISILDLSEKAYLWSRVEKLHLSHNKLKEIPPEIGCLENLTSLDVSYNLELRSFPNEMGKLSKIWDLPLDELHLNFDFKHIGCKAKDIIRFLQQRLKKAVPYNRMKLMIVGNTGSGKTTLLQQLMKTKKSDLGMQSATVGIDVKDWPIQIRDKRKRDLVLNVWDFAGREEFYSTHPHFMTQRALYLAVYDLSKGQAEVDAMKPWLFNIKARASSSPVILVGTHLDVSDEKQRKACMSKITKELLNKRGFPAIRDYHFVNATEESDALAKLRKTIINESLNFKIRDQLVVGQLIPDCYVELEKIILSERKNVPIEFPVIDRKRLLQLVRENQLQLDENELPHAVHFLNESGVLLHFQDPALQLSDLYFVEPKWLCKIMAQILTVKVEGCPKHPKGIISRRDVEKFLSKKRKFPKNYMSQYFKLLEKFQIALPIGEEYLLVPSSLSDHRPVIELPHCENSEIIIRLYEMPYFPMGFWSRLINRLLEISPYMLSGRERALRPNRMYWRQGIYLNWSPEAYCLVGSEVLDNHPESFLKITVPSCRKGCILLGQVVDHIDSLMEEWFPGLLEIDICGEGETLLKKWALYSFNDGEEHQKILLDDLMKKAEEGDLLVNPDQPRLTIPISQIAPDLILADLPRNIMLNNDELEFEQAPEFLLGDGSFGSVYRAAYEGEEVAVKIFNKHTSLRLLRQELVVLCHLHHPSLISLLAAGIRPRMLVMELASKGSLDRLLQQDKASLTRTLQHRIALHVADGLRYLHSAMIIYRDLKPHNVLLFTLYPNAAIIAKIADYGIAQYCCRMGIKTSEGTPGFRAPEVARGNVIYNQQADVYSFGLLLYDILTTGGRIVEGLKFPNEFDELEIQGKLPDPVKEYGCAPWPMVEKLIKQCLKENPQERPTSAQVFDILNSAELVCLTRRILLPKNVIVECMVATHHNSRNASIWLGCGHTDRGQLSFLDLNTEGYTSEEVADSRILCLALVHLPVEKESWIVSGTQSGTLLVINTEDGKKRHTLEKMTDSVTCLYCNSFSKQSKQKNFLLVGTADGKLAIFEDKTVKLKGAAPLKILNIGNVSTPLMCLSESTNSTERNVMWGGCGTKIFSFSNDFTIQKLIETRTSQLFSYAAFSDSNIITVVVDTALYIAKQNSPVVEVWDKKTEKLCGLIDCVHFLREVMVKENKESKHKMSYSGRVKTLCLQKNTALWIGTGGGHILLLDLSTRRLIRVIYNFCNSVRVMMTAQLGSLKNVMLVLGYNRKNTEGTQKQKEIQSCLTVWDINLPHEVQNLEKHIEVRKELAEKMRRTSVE

Results are given in words; binding and its absence hold for the method and conditions named. In cells and extracts the contact can be indirect. Some entries that bind do so weakly or less than the wild type.

One assay has as its target HA-AQP4 (UniProt P55087). Put plainly: co-IP; HeLa cell lysates co-transfected with FLAG-LRRK2 domains and HA-AQP4; co-IP by antibody to HA.
The target of a further assay is FLAG-LRRK2 WT (UniProt Q5S007). Nature of the assay: co-IP; HeLa cell lysates co-transfected with FLAG-LRRK2 WT/G2019S and HA-AQP4 (with or without Mli-2); co-IP by antibody to LRRK2.
The next assay concerns the target FLAG-LRRK2 G2019S (UniProt Q5S007). Described as above.

For the substance “FLAG-LRRK2 ROC domain (from UniProt Q5S007 1328-1511) (domain or fragment)”, in the assay with HA-AQP4, the binding entry was “no binding”. The same measure, in the same setting: for “FLAG-LRRK2 COR domain (from UniProt Q5S007 1546-1740) (domain or fragment)” the value was “binds”. With HA-AQP4 (from UniProt P55087 1-323), the binding result in the assay with FLAG-LRRK2 WT and with FLAG-LRRK2 G2019S was “binds” each time. As to “FLAG-LRRK2 Kinase domain (from UniProt Q5S007 1879-2138) (domain or fragment)”, the binding entry with HA-AQP4 is listed as “binds”.
